Results as given in PubChem BioAssay AID1508623 (National Center for Advancing Translational Sciences (NCATS), 2021).
The campaign covered roughly 48,000 compounds. About 450 (0.94%) were called active. About 19% were inconclusive and are not listed. Calls follow the shape of the dose curve; as a rule, active = well fitted inhibition curve with a large enough effect; inconclusive = small, poorly fitted or top-dose-only effect; inactive = no such curve, though single readings can be large or run the other way. The list shows a part of the results.

Test: Primary qHTS for Identification of Small Molecule Inhibitors of Huntingtin Promoter Activity; also: nearly all actives have a fitted effect of over 50% in size
Conditions: HEK293 HTT promoter firefly luciferase reporter (activity 0% = vehicle and -100% = no light), 24 h; series mostly up to 57.5 µM; activity change, negative = inhibition: at the top concentration
How it was run: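 Quantitative HTS used concentration series of up to 57.5 uM final on HEK293 luciferase reporter cells, 24 h at 37 degrees C. Readout was Dual-Glo firefly luminescence.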
Potency is read from the fitted curve at half-maximal effect.

| SMILES | activity change, negative = inhibition | Potency |
| --- | --- | --- |
| CCN(CC)CCNC(=O)CCn1c(=O)c2cccn2c2cccnc21 | inactive: -3.37% |  |
| Cc1ccc2nc(-c3ccc(NC(=O)Cc4ccccc4)cc3)sc2c1 | inactive: 59.9% |  |
| O=C(CSc1nc2ccsc2c(=O)n1Cc1ccc(F)cc1)NCc1ccc(Cl)cc1 | inactive: -6.92% |  |
| CN1c2ccc(Cl)cc2-c2nc(SCC(=O)NCc3ccc(F)cc3)ncc2S1(=O)=O | inactive: -7.74% |  |
| CC1=C(C(=O)Nc2ccc(C)cc2C)C(c2ccccc2)n2nc(SCC(=O)c3ccc(C)cc3)nc2N1 (stereo not drawn) | inactive: -2.19% |  |
| Cc1cc(Nc2ccc(Br)cc2)n2nc(-c3ccccc3C)nc2n1 | inactive: -7.85% |  |
| CCc1ccccc1NC(=O)CCNS(=O)(=O)c1ccc2c(c1)CCCC(=O)N2 | inactive: -5.94% |  |
| Oc1ccc(-c2nc(-c3ccc(F)cc3)c(-c3ccncc3)[nH]2)cc1 | inactive: -2.91% |  |
| CCN1CCN(c2ncc3c(n2)CCN(Cc2cc(Br)cs2)C3)CC1 | inactive: -20% |  |
| O=C(NCC(c1ccc2c(c1)OCO2)N1CCOCC1)c1ccccc1 (stereo not drawn) | inactive: -16.2% |  |
| Cc1c(O)nc(SCC(=O)Nc2ccc(Cl)cc2Cl)n(-c2ccc(F)cc2)c1=O | inactive: -13.5% |  |
| Cc1nn(C)c2c1c(C(F)(F)F)cc(=O)n2CC(=O)NCc1ccc(OC(C)C)cc1 | inactive: -19.5% |  |
| CCC(C)c1ccc(OCC(=O)Nc2cccc3ccc(C)nc23)cc1 (stereo not drawn) | inactive: -16.9% |  |
| Cc1cn(C)c(CC(=O)NCc2cccc(Cl)c2)c1C(=O)O | inactive: -12.3% |  |
| CC(C)(C)c1ccc(S(=O)(=O)N2CCC(Oc3ccc(-n4cnnn4)cc3)CC2)cc1 | inactive: 0.667% |  |
| O=C(CNC(=O)c1ccc(Cl)cc1)OCc1cc(=O)n2nc(C3CC3)sc2n1 | inactive: -16.1% |  |
| CC(C)c1ccc(C2Sc3ccccc3NC3=C2C(=O)c2ccccc23)cc1 (stereo not drawn) |  | active: 12.6 µM |
| COC(=O)c1cc(NC(=O)CCc2c(C)nc3c(c(C)nn3C(C)(C)C)c2C)cc(C(=O)OC)c1 | inactive: 13.7% |  |
| COc1ccc(Nc2oc(-c3ccc(COc4cccc(C)c4)o3)nc2C#N)cc1 | inactive: -18.1% |  |
| Cn1nnnc1SCCCNCc1ccc(Cl)cc1 | inactive: 30.9% |  |
| COc1ccc(CCNC(=O)Cc2c(C)c3cc4c(C(C)(C)C)coc4c(C)c3oc2=O)cc1OC | inactive: 3.67% |  |
| Cc1ccc2c(c1)cc1c(=O)n(Cc3cccc(Cl)c3)nc(C)n12 | inactive: -8.67% |  |
| Cc1cc(C)c2c(c1)NC(=O)C2(O)c1c[nH]c2ccccc12 (stereo not drawn) | inactive: -13.6% |  |
| Cc1nc(N2CCOCC2)c2c(C(=O)N3CCN(c4ccccc4F)CC3)c(C)oc2n1 | inactive: -9.68% |  |
| Cc1ccc(CN2COc3ccc4c(C)cc(=O)oc4c3C2)cc1 | inactive: -5.17% |  |

| SMILES | activity change, negative = inhibition | Potency |
| --- | --- | --- |
| CC1CCc2onc(C(=O)N3CCN(c4ccccc4)CC3)c2C1 (stereo not drawn) | inactive: 7.59% |  |
| O=C(COc1ccccc1F)Nc1ccccc1C(=O)OCc1cc(=O)n2nc(C3CC3)sc2n1 | inactive: -5.15% |  |
| O=C(NCc1ccc(Cl)cc1)c1cc2c(s1)-c1ccccc1SC2 | inactive: -12.8% |  |
| COc1ccc(-c2nc3c(c(SCC(=O)Nc4cccc(O)c4)n2)Cc2c(CO)cnc(C)c2O3)cc1 | inactive: -5.66% |  |
| CCc1ccccc1NC(=O)Cn1c(=O)n(Cc2ccco2)c(=O)c2ccccc21 | inactive: -14% |  |
| CCc1ccc(NC(=O)C2CCN(c3nn4cc(-c5ccc(OC)cc5)nc4s3)CC2)cc1 | inactive: 6.62% |  |
| Cc1ccc(N2C(=O)CC(c3ccccc3F)C3=C2COC3=O)cc1Cl (stereo not drawn) | inactive: -3.88% |  |
| c1ccc(-c2nc[nH]c2-c2ccccc2)cc1 | inactive: -9.6% |  |
| CCCCCCCC(=O)OCC(O)CO (stereo not drawn) | inactive: -0.424% |  |
| Cc1cccc(S(=O)(=O)Nc2cccc(-c3ccc(N4CCCCC4)nn3)c2)c1 | inactive: 0.901% |  |
| CCN(CC)C(=O)Cn1c(=O)n(-c2ccc(Cl)c(Cl)c2)c(=O)c2c(C)c(C(=O)N(CC)CC)sc21 | inactive: 0% |  |
| CCc1nnc2c(N3CCN(c4cccc(C)c4)C(C)C3)nc3ccccc3n12 (stereo not drawn) | inactive: -27.4% |  |
| CC1CCN(c2nc3c(S(=O)(=O)c4ccccc4)nnn3c3ccc(Cl)cc23)CC1 | inactive: 10.2% |  |
| COc1ccc(NC(=O)c2ccc3c(c2)N(Cc2cccc(Cl)c2)C(=O)c2ccccc2S3=O)cc1Cl (stereo not drawn) | inactive: -20.5% |  |
| Cc1c(C)n(Cc2ccccc2)c2ccc(C(=O)NCc3ccccc3F)cc12 | inactive: -9.64% |  |
| COc1ccccc1NC(=O)NCCCN1CCN(c2ccc(F)cc2)CC1 | inactive: -3.3% |  |
| COc1ccc(C(=O)Nc2cccc(-c3cn4ccsc4n3)c2)cc1OC | inactive: 39.6% |  |
| CCCN1CCN(CCCNC(=O)c2ccc3c(c2)sc2nc(-c4ccc(OC)cc4)cn23)CC1 | inactive: 3.6% |  |
| CCS(=O)(=O)c1ccc(OC)c(C(=O)OC)c1 | inactive: 2.95% |  |
| CC1=C(C(=O)NCc2ccccc2Cl)C2(CCCCCC2)OC1=O | inactive: -9.42% |  |
| O=C(O)c1ccc2cc(-c3ccc(O)c(C45CC6CC(CC(C6)C4)C5)c3)ccc2c1 | inactive: -18.1% |  |
| Cc1ccc2c(CNCC(C)c3ccccc3)c(C(=O)O)n(Cc3ccccc3C)c2c1 (stereo not drawn) | inactive: 8.62% |  |
| Cc1ccccc1Cn1c(CN2CCC(C(=O)NCc3cccnc3)CC2)cc2ccccc21 | inactive: 4.58% |  |
| CCOC(=O)C1CCN(C(=O)Cn2nc(C)n3c(cc4sccc43)c2=O)CC1 | inactive: -5.83% |  |
| O=C(NC[C@H](O)CO)c1ccncc1Nc1ccc(I)cc1F | inactive: -14.8% |  |

| SMILES | activity change, negative = inhibition | Potency |
| --- | --- | --- |
| Cn1c(SCC(=O)N2CCOCC2)ncc(C(=O)Nc2ccccc2)c1=O | inactive: -3.45% |  |
| COC(=O)c1ccccc1NC(=O)Cn1cnc2sc(C)c(S(=O)(=O)N3CCC(C)CC3)c2c1=O | inactive: -27.5% |  |
| Cc1nc2ccccn2c(=O)c1NC(=O)c1cccc(F)c1 | inactive: 11.7% |  |
| COc1ccc(CCNC(=O)c2ccc3c(c2)sc2nc(-c4ccccc4)cn23)cc1OC | inactive: 23% |  |
| Cc1ccccc1N(C)S(=O)(=O)c1nnc(NC(=O)c2ccco2)s1 | inactive: -6.32% |  |
| CCOC(=O)c1cc(-c2ccc(OC)cc2)n(CCC(=O)NCCc2ccccc2)c1C | inactive: 2.9% |  |
| Cc1ccc(NC(=O)C2(C)Cc3ccccc3C(=O)O2)c(C)c1 (stereo not drawn) | inactive: -6.71% |  |
| Cc1cc(OCC(=O)NCCc2nc3ccccc3[nH]2)cc(C)c1Cl | inactive: -8.88% |  |
| Cc1cccc(C(=O)N2CCc3cc(CNC(=O)c4cc5ccccc5[nH]4)ccc32)c1 | inactive: -14.8% |  |
| CCn1nc(C)c(CCN(C)C(=O)Nc2cccc(Cl)c2C)c1C | inactive: -18.8% |  |
| Cc1ccc(CNC(=O)C(C)n2c(=O)cc(C(F)(F)F)c3c(C)nn(C)c32)cc1 (stereo not drawn) | inactive: 0% |  |
| Cc1ccc(S(=O)(=O)C(CNC(=O)c2c(F)cccc2F)c2ccco2)cc1 (stereo not drawn) | inactive: -13.4% |  |
| O=S(=O)(c1ccccc1)c1nc(-c2ccccc2Cl)oc1N1CCCCCC1 | inactive: -28.1% |  |
| CCS(=O)(=O)N1CCc2cc(C(=O)NCc3ccccc3OC)ccc21 | inactive: -6.17% |  |
| CCn1cc(CNC(=O)c2cc(-c3ccc(C)cc3)nc3ccc(Br)cc23)c(C)n1 | inactive: 5.87% |  |
| COc1cccc(NC(=O)C2CCC(CNS(=O)(=O)c3ccc4c(c3)CCCC(=O)N4)CC2)c1 (stereo not drawn) | inactive: -3.83% |  |
| Cc1ccccc1-c1nc2scc(CCNC(=O)c3ccco3)n2n1 | inactive: 0% |  |
| COc1ccc(NC(=O)CN2C(=O)COc3ccc(S(=O)(=O)N4CCOCC4)cc32)cc1 | inactive: -7.27% |  |
| O=C(NCc1ccccc1)C(=O)Nc1c2c(nn1-c1ccc(F)cc1)CSC2 | inactive: -23.2% |  |
| COc1cccc(NC(=O)C2CCN(c3ccc(Sc4ccc(C)cc4)nn3)CC2)c1 | inactive: -12.6% |  |
| Clc1ccccc1OCCSc1nnc(-c2cccs2)o1 | inactive: -19.5% [at 11.5 µM] |  |
| O=C(CSc1nc(=O)n(Cc2ccco2)c2c1CCC2)NCc1ccccc1 | inactive: -0.0501% |  |
| CCc1ccc2oc(-c3ccc(C)c(NC(=O)/C=C/c4ccco4)c3)nc2c1 | inactive: 19.2% |  |
| Cc1sc2ncn(CC(=O)N3CCN(c4ccccc4F)CC3)c(=O)c2c1S(=O)(=O)N1CCC(C)CC1 | inactive: -8.86% |  |
| Cc1cccc(OCCSc2nnc(-c3cccs3)o2)c1 | inactive: -23.1% [at 11.5 µM] |  |

| SMILES | activity change, negative = inhibition | Potency |
| --- | --- | --- |
| Cc1ccc2nc(/C(C#N)=C/c3ccccc3F)[nH]c2c1 | inactive: 48.1% |  |
| O=C(NC1CCCC1)c1ccc2c(=O)n(Cc3ccccc3)c(SCc3ccccc3F)nc2c1 | inactive: 0.406% |  |
| COc1ccccc1CNC(=O)C1CCN(c2nc3ccc(C)cc3[nH]2)CC1 | inactive: 3.81% |  |
| CCOc1ccc(CCNC(=O)c2cc3c(-c4ccccc4F)nn(C)c3s2)cc1 | inactive: -24.6% |  |
| COc1ccc(-c2cc(-c3ccc(C)cc3)nc3c2COc2ccccc2-3)cc1 | inactive: -7.21% |  |
| CCC(Cn1nnc2ccccc2c1=O)NC(=O)Nc1ccccc1OC (stereo not drawn) | inactive: -12.2% |  |
| Cc1ccc(S(=O)(=O)c2nc(-c3ccc(F)cc3)oc2SCC(=O)NC2CCCCC2)cc1 | inactive: -15.6% |  |
| C[C@]12CCC(=O)C=C1CC[C@@H]1[C@H]2[C@@H](O)C[C@@]2(C)[C@H]1CC[C@]2(O)C(=O)CO | inactive: -17.5% |  |
| COc1ccc(CCNC(=O)c2ccc3c(c2)CCN3S(C)(=O)=O)cc1OC | inactive: -6.55% |  |
| COc1ccc(Cn2cc(S(=O)(=O)c3ccc(C)cc3)c(=O)c3cc(F)ccc32)cc1 | inactive: -19.4% |  |
| COc1ccc2c(c1)c(=O)c(C(=O)c1ccccc1)cn2CC(=O)Nc1ccc2c(c1)OCO2 | inactive: -17.2% |  |
| CCOc1ccc(NC(=O)c2oc3ccccc3c2NC(=O)COc2cccc(OC)c2)cc1 | inactive: -6.28% |  |
| NS(=O)(=O)c1ccc(CCNC(=O)C2CCN(c3ncnc4c3nc3n4CCCCC3)CC2)cc1 | inactive: -1.02% |  |
| Cc1ccc(CNC(=O)CCc2cn(C)c3ccccc23)cc1 | inactive: -6.39% |  |
| CCC(CC)C(=O)Nc1nnc(S(=O)(=O)N2CCCCCC2)s1 | inactive: -14.7% |  |
| Cc1cn2c(=O)cc(COC(=O)c3ccc(NC(=O)c4ccc(F)cc4)cc3)nc2s1 | inactive: -29.3% |  |
| CCOC(=O)c1ccc(NC(=O)c2cnn3c(=O)c4c(n(CC)c23)CCN(Cc2ccc(OC)cc2)C4)cc1 | inactive: -21.2% |  |
| COC(=O)c1ccc(Nc2ncnc3c2cnn3C)cc1 | inactive: -4.83% |  |
| COc1ccc(C2c3[nH]c4ccccc4c3CCN2C(=O)CCC2CCCC2)cc1 (stereo not drawn) | inactive: -27.7% |  |
| COc1ccc(CNC(=O)Cc2c(C)c3cc4c(C)coc4cc3oc2=O)cc1OC | inactive: -1.65% |  |
| CC(Sc1nccn1C)C(=O)Nc1ccccc1C#N (stereo not drawn) | inactive: -11.6% |  |
| CCN(CC)c1ccc(NC(=O)c2cc(C)nc3c2c(C)nn3-c2ccc(C)cc2)c(C)c1 | inactive: -5.22% |  |
| COc1ccc(-c2nc3scc(CCNS(=O)(=O)c4ccc(Oc5ccccc5)cc4)n3n2)cc1OC | inactive: -23.9% |  |
